{"source": "PubChem BioAssay AID463173", "about": "(ICCB-Longwood Screening Facility, Harvard Medical School, 2010)", "note": "The campaign covered roughly 52,000 compounds. About 1,700 (3.3%) were called active. Rule as the data show it: active = survival mostly below about 52% (no sharp cut-off); inactive = mostly above about 56%. This is one part of the list.", "data": [{"test_system": "Wild type", "test": "S. aureus survival, RN4220 and DeltatarO strains – OD600, teichoic acid synthesis inhibitors, primary screen (AID 463173)", "settings": "S. aureus RN4220 wild type/DeltatarO growth, OD600, 18 h, active compounds read low, screened at 18.75 µg/mL (by protocol)", "values": [{"smiles": "Cc1c(C(=O)NCCc2ccccc2)oc2ccccc12", "survival": "inactive: 118%"}, {"smiles": "Cc1cccc(C)c1NC(=O)Cn1nnc(C(=O)NCc2ccc(F)cc2)c1N", "survival": "inactive: 78%"}, {"smiles": "Cc1ccccc1CCNC(=O)C1CCN(S(=O)(=O)c2ccc3c(ccn3C)c2)CC1", "survival": "inactive: 63%"}, {"smiles": "CCOc1ccc(NC(=O)CSc2nnc(C)n2CC2CCCO2)cc1", "note": "(configuration not stated)", "survival": "inactive: 106%"}, {"smiles": "O=C(NCC1(c2ccccc2)CCCC1)C(=O)Nc1cccc(Br)c1", "survival": "inactive: 96%"}, {"smiles": "Cn1c(=O)c2c(nc(Oc3ccccc3Cl)n2Cc2ccc(C#N)cc2)n(C)c1=O", "survival": "inactive: 81%"}, {"smiles": "COc1cc(Nc2ncc3c(n2)CCN(Cc2cccc(C)c2)C3)cc(OC)c1", "survival": "inactive: 75%"}, {"smiles": "Cn1nnnc1SCCCNCc1cccc(OCc2ccc(F)cc2)c1", "survival": "inactive: 114%"}, {"smiles": "Cc1cccc(N2CCN(C(=O)C3CCN(c4ncnc5c4nc4n5CCCCC4)CC3)CC2C)c1", "note": "(configuration not stated)", "survival": "active: 1%"}, {"smiles": "CCCN(CCC)C(=O)C(Cc1ccccc1)NS(=O)(=O)c1ccc2c(c1)c(=O)n(C)c(=O)n2C", "note": "(configuration not stated)", "survival": "inactive: 82%"}, {"smiles": "Cc1oc2c(C)c3oc(=O)c(CC(=O)N4CCCCC4)c(C)c3cc2c1C", "survival": "inactive: 83%"}, {"smiles": "CCc1nn(C(C)C(=O)N2CCN(c3ccccc3)CC2)c(=O)c2cc3occc3n12", "note": "(configuration not stated)", "survival": "inactive: 89%"}, {"smiles": "CSc1ccc(CCNC(=O)c2ccc3c(Cl)c4c(nc3c2)CCCC4)cc1", "survival": "inactive: 78%"}, {"smiles": "CCCSc1ncc(Cl)c(C(=O)Nc2nc3ccc(C)cc3s2)n1", "survival": "inactive: 76%"}, {"smiles": "CC1(C)CC(n2c(SCC#N)nc3c(c2=O)C2(CCCC2)Cc2ccccc2-3)CCO1", "note": "(configuration not stated)", "survival": "inactive: 118%"}, {"smiles": "Cc1nn2c(=O)cc(COC(=O)c3cccs3)nc2s1", "survival": "inactive: 68%"}, {"smiles": "CCc1ccccc1NC(=O)Cn1nc(C(F)(F)F)c2c1CCC2", "survival": "inactive: 74%"}, {"smiles": "Cc1cc(C)c2c(CC(=O)Nc3ccccc3C(F)(F)F)coc2c1", "survival": "inactive: 91%"}, {"smiles": "CN(C)c1ccc(C(CNS(=O)(=O)c2ccc(Cl)cc2)N2CCOCC2)cc1", "note": "(configuration not stated)", "survival": "active: 10%"}, {"smiles": "Cc1cccc(NC(=O)C2CCN(c3nnc(C)c4c(C)n(-c5ccccc5)nc34)CC2)c1C", "survival": "inactive: 68%"}, {"smiles": "O=C(NCc1ccccc1)C(=O)NCC(c1ccco1)S(=O)(=O)c1cccs1", "note": "(configuration not stated)", "survival": "inactive: 70%"}, {"smiles": "Cc1ccc(Cl)cc1NC(=O)C1CCCN(c2cnccn2)C1", "note": "(configuration not stated)", "survival": "inactive: 91%"}, {"smiles": "CCc1nn(CC(=O)Nc2cccc(C(C)=O)c2)c(=O)c2cc3sccc3n12", "survival": "inactive: 78%"}, {"smiles": "O=C(CCn1c(=O)c2ccccc2n(Cc2cccc(Cl)c2)c1=O)NCCc1ccccc1", "survival": "inactive: 74%"}, {"smiles": "CCOC(=O)c1ccccc1NC(=O)Cn1c(=O)n(Cc2nc(C)no2)c(=O)c2ccccc21", "survival": "inactive: 73%"}, {"smiles": "CN(c1ccccc1C(=O)O)S(=O)(=O)c1ccc2[nH]c(=O)oc2c1", "survival": "inactive: 80%"}, {"smiles": "CCOC(=O)c1c(S(=O)(=O)N2CCC(C(=O)NCc3ccccc3OC)CC2)c(C)n(C)c1C", "survival": "inactive: 70%"}, {"smiles": "CCCCSCCCNC(=O)c1cn(C)c2ccc(S(=O)(=O)N3CCCC3)cc2c1=O", "survival": "inactive: 85%"}, {"smiles": "Cc1cc(C)cc(OCC(=O)N(Cc2ccc(Cl)cc2)CC2CCCO2)c1", "note": "(configuration not stated)", "survival": "inactive: 69%"}, {"smiles": "Cc1ccc(CNC(=O)CCCCn2c(=O)c3ccccc3n(Cc3ccc(C)cc3)c2=O)cc1", "survival": "inactive: 80%"}, {"smiles": "CC(=O)Nc1ccc2[nH]c(C)cc(=O)c2c1", "survival": "inactive: 103%"}, {"smiles": "O=C(NC1CCCC1)c1ccc2c(=O)n(Cc3ccccc3)c(SCc3ccccc3)nc2c1", "survival": "inactive: 83%"}, {"smiles": "Cc1ccc(-n2nc(C(=O)Nc3ccc(C)c(F)c3)c(=O)n(C)c2=O)cc1", "survival": "inactive: 68%"}, {"smiles": "COc1ccc(-c2nc3ccc(C)cn3c2Nc2ccc3c(c2)OCO3)cc1", "survival": "inactive: 89%"}, {"smiles": "COc1ccc(N2CCN(CCCNC(=O)c3cc(Nc4ccccc4OC)nc4ccccc34)CC2)cc1", "survival": "inactive: 83%"}, {"smiles": "COc1cc(C(=O)N2CCN(c3ccc(Nc4ccccc4)nn3)CC2)cc(OC)c1OC", "survival": "inactive: 59%"}, {"smiles": "Cc1ccc(-n2nnnc2CNC(=O)c2ccccc2)cc1C", "survival": "inactive: 148%"}, {"smiles": "Cc1ccc(Nc2nc(Nc3ccc(C)c(C)c3)nc(N3CCOCC3)n2)cc1C", "survival": "inactive: 73%"}, {"smiles": "CCc1cccc(C)c1NC(=O)C1CCN(S(=O)(=O)Cc2ccccc2)CC1", "survival": "inactive: 86%"}, {"smiles": "CC1CCCCN1S(=O)(=O)c1cc2c3c(c1)CC(=O)N3CCC2", "note": "(configuration not stated)", "survival": "inactive: 78%"}, {"smiles": "O=C(Cn1c(-c2cccs2)cc2ccccc21)NCc1ccccc1Br", "survival": "inactive: 120%"}, {"smiles": "COc1ccc(N2CC(NC(=O)COc3ccc4ccccc4c3)CC2=O)cc1", "note": "(configuration not stated)", "survival": "inactive: 87%"}, {"smiles": "O=C(Cn1c(=O)n(Cc2ccc(C(=O)NCc3ccccc3Cl)cc2)c(=O)c2ccccc21)Nc1ccc(F)c(Cl)c1", "survival": "inactive: 78%"}, {"smiles": "Cc1cccc(CNC(=O)CN2C(=O)CCCc3ccccc32)c1", "survival": "inactive: 77%"}, {"smiles": "Cc1ccc(-c2nc(CS(=O)(=O)CC(=O)NCc3ccccc3Cl)c(C)o2)cc1", "survival": "inactive: 77%"}, {"smiles": "CN(C)S(=O)(=O)c1ccc2c(c1)N(CC(=O)N1CCN(c3ccccc3F)CC1)CCS2", "survival": "inactive: 123%"}, {"smiles": "CCc1cccc(C)c1NC(=O)CN1C(=O)C2(SCC(=O)N2c2cc(C)cc(C)c2)c2ccccc21", "note": "(configuration not stated)", "survival": "inactive: 72%"}, {"smiles": "COc1cccc(C(=O)Nc2ccccc2-c2nc3ccccc3s2)c1", "survival": "inactive: 42%"}, {"smiles": "CCOC(=O)c1oc2ccccc2c1NC(=O)CN1CCOCC1", "survival": "inactive: 105%"}, {"smiles": "CC1=C(C(=O)Nc2cccc(C(F)(F)F)c2)C2(CCCCC2)OC1=O", "survival": "inactive: 88%"}, {"smiles": "CCNC(=O)CCSc1nc2cc(Cl)ccc2o1", "survival": "inactive: 110%"}, {"smiles": "Cc1oc(-c2cccc(Cl)c2)nc1CN1CCCC(C(=O)NCc2ccc(Cl)cc2)C1", "note": "(configuration not stated)", "survival": "active: -1%"}, {"smiles": "Cc1ccccc1CNC(=O)c1sc2ncnc(N(C)C3CCCCC3)c2c1C", "survival": "inactive: 73%"}, {"smiles": "O=S(=O)(c1ccc2[nH]c3c(c2c1)CCCCC3)N1CCN(c2cccc(Cl)c2)CC1", "survival": "inactive: 78%"}, {"smiles": "Cc1cccc(NC(=O)c2sc(-n3nc(C)c(CCC(C)C)c3C)nc2C)c1C", "survival": "inactive: 91%"}, {"smiles": "COc1cc(OC)cc(C(=O)Nc2cccc(-c3cn4cccnc4n3)c2)c1", "survival": "inactive: 127%"}, {"smiles": "COc1cc2[nH]c(=O)c(C(=O)NCCN3CCNCC3)c(O)c2cc1OC", "survival": "inactive: 107%"}]}]}
